In the RNAGym collection of RNA variant scans (doi:10.1093/nar/gkz1192) one finds self-cleavage data, which are given here for 68 variants.

Read counts are not given, so values of variants with three or more changes are uncertain.

First the molecules themselves.
B1: CPEB3 Ribozyme (parent)
chain: UAACAGGGGGCCACAGCAGAAGCGUUCACGUCGCAGCCCCUGUCAGAUUCUGGUGAAUCUGCGAAUUCUGCUGUAUAUCUC

The variants in this data set derive from B1. The data set can be described thus: self-cleavage, relative activity (ratio to wild type); higher = more cleavage; in vitro, sequencing. The method, boiled down:
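CPEB3 self-cleaving ribozyme mutant libraries were made by rounds of error-prone PCR, barcoded, and transcribed in vitro with T7 RNA polymerase for 5 hours at 37°C. Cleavage occurred during transcription and a 15 min DNase I step before EDTA stop. RNAs were reverse transcribed with template switching and Illumina-sequenced, with DNA sequencing mapping barcodes to variants. Relative activity is the variant's cleaved/total read fraction divided by wild type's (minimum 5 reads), averaged across three batches.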
UAACAGGGGGCCACAGCAGAAGCGUUCUCGUCGCAGCCCCUGUCAGAUUCUGGUGAAUCCGCGAAUUCAGCUGUAUAUCUC: the self-cleavage came out at 0.19.
In the case of UAACAGGGGGCCACAGCAGAAGCGUUCACAUCGCCGCCCCUGUCAGAUUCUGGUGAAUCUGCGAAUUCUGCUGUAUACCUC it was 0.12.
In the case of UAACAGGGGGCCACAGCAGAAGCGUUCUCGUCGCAGCCCCUGUCAGAUUCUGGUGAACCUGAGAAUUCUGCUGUAUACCUC it was 0.16; in that of UAACAGGGGGCCACAGCAGAAGCGUUCAUGUCGCGGCCCCUGACAGAUUCUGGUGAAUCUGCGAGUUCUGCUGUAUACCUC, 0.68.
With UAACAGGGGGCCACAGCAGAAGCGUUCACAUCGCAGCCCCUGUCAGAUUCUGGUGAGUCUGCGAAUUCUGCUGAAUAUCUC the figure was 0.14.
Consider UAACAGGGGGCCACAGCAGAAGCGUUCAGGUCGCAGCCCCUGUCAGAUUCUGGUGAAUCUGCGAAUCCCGCUGUAUAUCUC, for which the self-cleavage came to 0.21.
On to UAACAGGGGGCCACAGCAGAAGCGUUCAAGUCGCAGCCCCUGUCAGAUUCAGGUGAAUCUGCGAAUUCUGCUGCAUAUCUC, for which the self-cleavage turned out to be 0.54.
In the case of UAACAGGGGGCCACAGCAGAAGCGUUCACAUCGCGGCCCCUGUCAGAUCCUGGUGAAUCUGCGAAUUCUGCAGUAUACCUC it was 0.06; in that of UAACAGGGGGCCACAGCAGAAGCGUUCAAGUCGCAGCCCCUGUCUGAUUCUGGCGAAUCUGCGAAUUCUGCGGUAUAUCUC, 0.08.
On to UAACAGGGGGCCACAGCAGAAGCGUUCAUGUCGCGGCCCCUGCCAGAUUCUGGCGAAUCUGCGUAUUCUGCUGUAUAUCUC, for which the self-cleavage is 0.08.
With UAACAGGGGGCCACAGCAGAAGCGUUCAAGUCGCAGCCCCUGUCAGAUUCUGGUGUAUCUGCGAAUACUGCUGUAUAUCUC, the self-cleavage was determined as 0.39.
In the case of UAACAGGGGGCCACAGCAGAAGCGUUCAGGUCGCAGCCCCUGUCAGUUCCUGGUGCAUCUGCGAAUUCUGCUGUAUACCUC, the self-cleavage stood at 0.08.
With UAACAGGGGGCCACAGCAGAAGCGUUCAUGUCGCAGCCCCUGUCAGAUUCUGGUGGAUCUGCGAAUUCUGCAGUAUAUCUC the figure was 0.34.
With UAACAGGGGGCCACAGCAGAAGCGUUCUCGUCGCAGCCCCUGUCAGAUUCUGGUGAAUCAGCGAGUUCUGCUGUAUAUCUC the figure was 0.3; with UAACAGGGGGCCACAGCAGAAGCGUUCAUGUCGCAGCCCCUGUCAGAUUCUGGUGUAUCUGCGAAUUCAGCUGUAUAUCUC, 0.09.
With UAACAGGGGGCCACAGCAGAAGCGUUCAAGUCGCAGCCCCUGUCAGAUUCUGGUGAAUCUGCGAAUCCUGCUGUAUAUCCC the figure was 0.13; with UAACAGGGGGCCACAGCAGAAGCGUUCACAUCGCUGCCCCUGUCAGAUUCUGGUGAAUCUGCGGAUUCUGCUGUAUAUCUC, 0.1; with UAACAGGGGGCCACAGCAGAAGCGUUCAUGUCGCAGCCCCUGACAGAUUCUGGUGAAUCUGCGAACUCUGCUGUAUACCCC, 0.1.
UAACAGGGGGCCACAGCAGAAGCGUUCAAGUCGCAGCCCCUGUCAGAACCUGGUGAAUCUGCGAAUUCUGCUGUAUACCAC: the self-cleavage worked out at 0.07.
With UAACAGGGGGCCACAGCAGAAGCGUUCAAGUCGCAGCCCCUGUCAGAUUCUCGAGAAUCUGCGAAUUCUGCUCUAUAUCUC the figure was 0.89.
In the case of UAACAGGGGGCCACAGCAGAAGCGUUCUCGUCGCAGCCCCUGUCAGAUUCUGGUGAAUCUGCGAAUUCUGCUGUAAGUCUC it was 0.76; in that of UAACAGGGGGCCACAGCAGAAGCGUUCUCGUCGCAGCCCCUGUCAGAUUCAGGUGAACCUGCGAAUUCUGCUGUAUAUCUC, 0.25; in that of UAACAGGGGGCCACAGCAGAAGCGUUCUCGUCGCAGCCCCUGUCAGAUUCUGGUGAAUCUGCGAAUUCUGCAGUAUACCUC, 0.27.
In the case of UAACAGGGGGCCACAGCAGAAGCGUUCAUGUCGCAGCCCCUGCCAGAUUCUGGUGAGUCUGCGAAUUCUGCCGUAUAUCUC it was 0.1.
For UAACAGGGGGCCACAGCAGAAGCGUUCAUGUCGCAGCCCCCGUCAGAUUCUGGCGAAUCUGCGAAUUCUGCUGUACAUCUC, the self-cleavage amounted to 0.52.
With UAACAGGGGGCCACAGCAGAAGCGUUCAUGUCGCAGCCCCUGUCAGAUUCUGGUGAAUCUGCGAACUCUGCUGUUUACCUC the figure was 0.16; with UAACAGGGGGCCACAGCAGAAGCGUUCACAUCGCAGCCCCUGUCGGAUUCUGGUGAAUCUGCGAAUUCAGCUGUAUAUCUC, 0.34; with UAACAGGGGGCCACAGCAGAAGCGUUCUCGUCGCAGCCCCUGUCAGAUUCUGGUGAAACUGCGAAUUGUGCUGUAUAUCUC, 0.11.
In the case of UAACAGGGGGCCACAGCAGAAGCGUUCACAUCGCGGCCCCUGUCAGAUUCUGGUGAAUCUGCGAAUCCUGCUGUAUAUCUC it was 0.14; in that of UAACAGGGGGCCACAGCAGAAGCGUUCAGGUCGCGGCCCCUGUCAGAUCCCGGUGAAUCUGCGAAUUCAGCUGUAUAUCUC, 0.19; in that of UAACAGGGGGCCACAGCAGAAGCGUUCACAUCGCAGCCCCUGUCAGAUUCUGGUGUAUCUGCGAAUCCUGCCGUAUAUCUC, 0.32.
In the case of UAACAGGGGGCCACAGCAGAAGCGUUCAAGUCGCUGCCCCUGUCAGAUUCUGGUGAAUCUGCGUAUUCUGCUGUAUAUCUC it was 0.18; in that of UAACAGGGGGCCACAGCAGAAGCGUUCAUGUCGCUGCCCCUGUCAGAUUCUGGUGAGUCUGCGAAUUCUGCUGUAUAUCUC, 0.2; in that of UAACAGGGGGCCACAGCAGAAGCGUUCAAGUCGCAGCCCCUGACAGAUUCUGGUGAAUCUGCGAGUUCUGCUGCAUAUCUC, 0.23.
Regarding UAACAGGGGGCCACAGCAGAAGCGUUCAGGUCGCAGCCCCAGUCAGAUUCUGGUGAAUGUGCGAAUUCUGCUGUAUAUCUC, the self-cleavage was 0.09.
In the case of UAACAGGGGGCCACAGCAGAAGCGUUCACAUCGCUGCCCCUGUCAGAUUCUGGUGAAUCAGCGAAUUCUGCUGUAUAUCUC, the self-cleavage came to 0.1.
In the case of UAACAGGGGGCCACAGCAGAAGCGUUCAUGACGCAGCCCCUGCCAGAUACUGGCGAAACUGCGAAUUCUGCUGUAUAUCUC it was 0.05; in that of UAACAGGGGGCCACAGCAGAAGCGUUCAUGUCGCAGCCCCUGUCAGAUUCUGGUGAAUCUGCGUAUUCUUCUGUAUAUCUC, 0.07.
On to UAACAGGGGGCCACAGCAGAAGCGUUCAUGUCGCAGCCCCUGUCAGAUUCUGGUGAAUCUGCGAAUCCUGCCGUAUAUCUC, for which the self-cleavage worked out at 0.1.
In the case of UAACAGGGGGCCACAGCAGAAGCGUUCAUGUCGCGGCGCCUGUCAGAUUCCGGUGAACCUGCGAAUUCUGCUGCGUAUCUC it was 0.31; in that of UAACAGGGGGCCACAGCAGAAGCGUUCAUGUCGCAGCCCCUGUCAGAUUCUGGCUGAUCUGCGAAUUCUGCUGUAUAUCUC, 0.13; in that of UAACAGGGGGCCACAGCAGAAGCGUUCAUGUCGCAGCCCCUGUCAGAUUCGGGUGAAUCUGCGAGUUCUGCUGUAUUUCUC, 0.17.
With UAACAGGGGGCCACAGCAGAAGCGUUCAUGGCGCAGCCCCUGUCAGAUUCUGGUGAAUCUGCGAAUCCUGCUGUAUAUCUC the figure was 0.11; with UAACAGGGGGCCACAGCAGAAGCGUUCUCGUCGCAGCCCCUGUCAGAUUCUGGGGAACCUGCGAACUCUGCUGUAUAUCUC, 0.07; with UAACAGGGGGCCACAGCAGAAGCGUUCAAGUCGCAGCCCCUGUCAGAUUCUGGUGUAUCCGCGAAUCCUGCUGUAUAUCUC, 0.1.
With UAACAGGGGGCCACAGCAGAAGCGUUCAUGUCGCAGCCCCUGUCGGGUUCUGGUGAGUCUGCGAAUUCUGCUGUAUAUCUC the figure was 0.09; with UAACAGGGGGCCACAGCAGAAGCGUUCAUGUCGCAGCCCCUGUCAGAUCCUGGUGUAUCUGCGAAUUCUGCCGUAUAUCUC, 0.2.
Consider UAACAGGGGGCCACAGCAGAAGCGUUCAUGUCGCAGCCCCUGCCAGAUUCCGGUGAAUCUGCGAAUUCUGCUGUAUAUCUC, for which the self-cleavage amounted to 0.2.
In the case of UAACAGGGGGCCACAGCAGAAGCGUUCAAGUCGCAGCCCCUGUCAGACUCUGGUGAAUCUGCGAAUUCUGCUGUAUAACUC it was 0.18.
In the case of UAACAGGGGGCCACAGCAGAAGCGUUCACAUCGCUGCCCCUGUCAGAUUCUGGUGAAUCUGCGAAUACUGCUGUAUAUCUC it was 0.15; in that of UAACAGGGGGCCACAGCAGAAGCGUUCAGGUGGCAGCCCCUGUCAGAUUCCGGUGAAUCUGCGAAUUCUGCUGUAUAUCUC, 0.18.
In the case of UAACAGGGGGCCACAGCAGAAGCGUUCAAGUCGCAGCCCCUGUCAGAUUCUGGUGAAACUGCGAAUUCUGCUGUAUAACUC, the self-cleavage is 0.2.
With UAACAGGGGGCCACAGCAGAAGCGUUCAUGUCGCAGCCCCUGUCAGAUCCUGGUGAAUCUGCGAAUUCCGCUGUAUAUCUC the figure was 0.11; with UAACAGGGGGCCACAGCAGAAGCGUUCAUGUCGCAGCCCUUGUCAGAUUCUGGUGAACCUGCGAAUUCUGCUGUAUAUCUC, 0.23; with UAACAGGGGGCCACAGCAGAAGCGUUCUCGUCGCAGCCCCUGUCAGAUUCUGGAGGAUCUGCGAAUUCUGCUGUAUAUCUC, 0.55.
In the case of UAACAGGGGGCCACAGCAGAAGCGUUCAUGUCGCAGCCCCUGUCAGAUCCUGGUGAAUCUGCGAAUUCUGCUGUAGACCUC it was 0.06.
In the case of UAACAGGGGGCCACAGCAGAAGCGUUCAGGUCACAGCCCCCGUCAGAUUCUGGUGAAUCUGCGAAUUCUGCUGUAUAUCUC it was 0.12; in that of UAACAGGGGGCCACAGCAGAAGCGUUCAUGUCGCAGCCCCCGUCAGAUUCUGGUGAAUCUGCGGAUUCUGCUGUAUAUCUC, 0.53.
Regarding UAACAGGGGGCCACAGCAGAAGCGUUCAUGUCGCGGCCCCUGUCAGAUUCUGGUGAAUCUGCGAGUUCUGCUGUAUACCUC, the self-cleavage came out at 0.65.
In the case of UAACAGGGGGCCACAGCAGAAGCGUUCUCGUCGCAGCCCCUGUCAGAUUCUGGUGAAUCCGCGAAUUCUGCUGAAUAUCUC it was 0.41; in that of UAACAGGGGGCCACAGCAGAAGCGUUCUCGUCGCAGCCCCUGUCAGAUUCUGGUGAAUCUGCGAAUACUGCCGUAUAUCUC, 0.29.
In the case of UAACAGGGGGCCACAGCAGAAGCGUUCAUGUCGCAGCCCCCGUCAGAUUCUGGUGAAUCUGCGAAUUCUGCUGUACAUCUC it was 0.54; in that of UAACAGGGGGCCACAGCAGAAGCGUUCUCGUCGCAGCCCCUGUCAGAUUCUGGCCAAUCUGCGAAUUCUGCUGUAUAUCUC, 0.36.
Regarding UAACAGGGGGCCACAGCAGAAGCGUUCUCGUCGCAGCCCCUGUCAGAUUCUGGUGAAUCAGCGAAUUCUGCCGUAUAUCUC, the self-cleavage stood at 0.33.
Turning to UAACAGGGGGCCACAGCAGAAGCGUUCAUGUCGCAGCCCCUGUCUGAUUCUGGUGCAUCUGCGAAUUCUGCUGUAUAUCUC, the self-cleavage is 0.09.
With UAACAGGGGGCCACAGCAGAAGCGUUCACAUCGCAGCCCCUGUCUGAUUCUGGUGAAUCUGCGAAUUCUGCCGUAUAUCUC the figure was 0.1.
In the case of UAACAGGGGGCCACAGCAGAAGCGUUCUCGUCGCAGCCCCUGUCAGAUUCCGGUGAAUCUCCGAAUUCAGCUGUAUUUCCC it was 0.33.
In the case of UAACAGGGGGCCACAGCAGAAGCGUUCAUGUCGCAGCCCCUGUCAGAUUCGGGUGAAUCUGCGAAUUCUGCUGUAUUUCUC it was 0.28.
